This is an account of results in the supplement of paper PMC11417369.

Some of the results follow.

In this experiment the test system is PfAP2-HC AP2 domain (GST-tagged). Description: gcPBM binding intensity (ln(normalized median fluorescence intensity)); higher = stronger DNA binding. The gist of the method:
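The highest Masliner-normalised natural-log median intensity across replicate spots of either probe orientation is reported as binding intensity. GST-tagged P. falciparum DNA-binding domains expressed in E. coli were applied for 1 h to an Agilent 4 × 180k array of primer-extended double-stranded 36-bp intergenic genomic probes plus negative controls, and bound protein was detected with Alexa488 anti-GST antibody and scanned at 488 nm.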
Take “GTACAAAAATAAATTGCACACATTTTAATAAAAAAA [CACACA_site2130]”: the “gcPBM binding intensity (ln)” value worked out at 9.75. Take “ATTTTTTTTTTTAAATGTACATAATATATATATAAT [XGTACX_site2686]”: the “gcPBM binding intensity (ln)” value was 9.54. Under “TCTCTCTTATAAAATACACACGAACAATCATATTAT [CACACA_site8065]” stands 9.68.

As for “AAAAAAATTTGTATCACACACGTATTATAAAAAAAT [CACACA_site4182]”, the “gcPBM binding intensity (ln)” value was determined as 9.89. Under “TATTCGTGCAATAATGGTACACTTATAAATTATTCA [XGTACX_site1430]” stands 9.56; under “TATTAAACTAAATGTAGTACATACACAAACGTAATC [XGTACX_site4905]”, 9.71. The same measure for “CGAACATTATAAATGTCATTTTTTCCAACTTGATCT [GTGCAC_negctrl_site501]”: 9.55; for “AAGCATTTCCATGGTGGTACTATACAAATAATAATT [XGTACX_site6193]”: 9.52. As to “TATAAATAATGTTAAACACACATACCGATATATAAC [CACACA_site7306]”, the “gcPBM binding intensity (ln)” value worked out at 9.83. For the sequence “AGTGTATTTTTATGTTGTACATGTAATATTTTTGAT [XGTACX_site541]”, the “gcPBM binding intensity (ln)” value was 9.84. Take “TATATAATATATTAATGTACGTTATATGTATTCCTT [XGTACX_site6140]”: the “gcPBM binding intensity (ln)” value was 9.93. Under “CTTTTTTTTTAAATATCACACACATATAATATATTC [CACACA_site9222]” stands 10; under “TACAGATATTCATATAAACACACATACAAATTATGT [CACACA_site7929]”, 9.88; under “TAATTCATCATATGCACACACAATACCAAAATGTGC [CACACA_site191]”, 10.1. The same measure for “AAACAGAATGCATATACACACATACAAAAAAGTGCA [CACACA_site6591]”: 10; for “TGTGTACCGATATTAAGTTTAACGTTATAAAAATAT [CACACA_negctrl_site1547]”: 9.55. The same measure for “TTTCTAAACCGGTACAGTACATATAAAAATAGAATA [XGTACX_site6662]”: 9.7; for “AAAGGACAAAAAAATGCATGCCGTTAAATTATGTAC [TGCATGCA_site512]”: 9.68; for “TATGTGGCACAAAAGGGTACATATAATTTATACAGG [XGTACX_site5499]”: 9.71.

Regarding “CATCATAGCATTCCTCGTACAAATATAAACATATCA [XGTACX_site2711]”, the “gcPBM binding intensity (ln)” value is 9.53.

Turning to “CATATACACGAACACACACACATATATATATATATA [CACACA_site4437]”, the “gcPBM binding intensity (ln)” value is 10.5. With “TAGTAAATAACAAAAGGAAAAATTAATGAGGCAAAA [TGCATGCA_negctrl_site526]”, the “gcPBM binding intensity (ln)” value amounted to 9.78. The same measure for “ATGTTTTGTAAAATGATTAAATATTAAGATTCAATA [CACACA_negctrl_site1743]”: 9.44; for “CTTAGAGTATTTAAATGTACACGTTTGTATATGTAT [XGTACX_site1767]”: 9.73. Under “TAATGAGGAAAAAGTGTGTTAAGATTTTATAATTTA [GTGCAC_negctrl_site608]” stands 9.55; under “TAAAAAAAAATAAATACATGCATATAATACATTATA [TGCATGCA_site518]”, 9.62; under “TATCATATAAATACATGTACATATTTGGAAAATAAT [XGTACX_site5373]”, 9.64. Under “ATATATATATTAACAATACACACGTGTATACCTTAT [CACACA_site2217]” stands 9.83; under “TGAACATGTTAAAATAAACACACAGCTAAGGTTTTT [CACACA_site7934]”, 9.8; under “TCAGTTAATGTATATGTACACACGGGGTGTATATAT [CACACA_site9103]”, 9.81. On to “ATATATATATTAAGGGGTACGTAAAAAATTGGGAAG [XGTACX_site7322]”, for which the “gcPBM binding intensity (ln)” value turned out to be 9.77. Under “AAATTATATCCCCTTTGTACTTACAGATCTTTATAC [XGTACX_site8163]” stands 9.78. The same measure for “ATAAATAAATACATATGTACATATATATATATATAT [XGTACX_site7145]”: 10.1.

Turning to “ATAAAATACAGATAAACACACATATAAACACCCATA [CACACA_site5381]”, the “gcPBM binding intensity (ln)” value was 10.4. Under “CTTTATTTTTTATACACACACAATATGTATAAATAT [CACACA_site7638]” stands 9.97; under “TACATATTTTTTATGTGTACATATTTTTTATGTGTG [XGTACX_site444]”, 9.89.

On to “TTCTTTTTTCTTTATGGTACGTGTAATATATATCAA [XGTACX_site7960]”, for which the “gcPBM binding intensity (ln)” value amounted to 9.76. Under “CCCAATAATTAAACAACACACATATATATATGTAAT [CACACA_site3084]” stands 9.79; under “AATGTGAAATATAAATGTACATAAATATATATATAT [XGTACX_site8710]”, 9.98; under “AAAATATAAATATATTGTACTGTTATATAATAAAAT [XGTACX_site2132]”, 9.62.

Turning to “TAACTATCATGTATTACACACAATATTTATTATAGA [CACACA_site7301]”, the “gcPBM binding intensity (ln)” value is 9.68. Under “TTTATAAAATTATTTGCATGTAACAATTATAAATTG [TGCATGCA_site1026]” stands 9.42; under “TTTTTTTTTCTTTCTCTTTAAATATTAATTAAAAAA [GTGCAC_negctrl_site90]”, 9.18; under “TATAAATATATTTATACACACATTAGTGTATACATG [CACACA_site7397]”, 9.88.
